Laboratory results from a collection of fitness landscapes (doi:10.1016/j.celrep.2020.107928).
The full ranking holds about 81,000 sequences; the median of “one-hybrid fitness for binding parS DNA” is about -0.17, and the highest 2% start at about 0.51. The list shows a part of the results.

B1: Caulobacter ParB omega fusion; a variant is named by its letters at X, in order, B8GW30 (parent)
chain: MESVVVGEPGMSEGRRGLGRGLSALLGEVDAAPAQAPGEQLGGSREAPIEILQRNPDQPRRTFREEDLEDLSNSIREKGVLQPILVRPSPDTAGEYQIVAGERAWRAAQRAGLKTVPIMVRELDDLAVLEIGIIENVQRADLNVLEEALSYKVLMEKFERTQENIAQTIGKSXSHVANXMRLLXLPDEVQSYLVSGELTAXHARAIAAAADPVALAKQIIEGGLSVRETEALARKAPNLSAGKSKGGRPPRVKDTDTQALESDLSSVLGLDVSIDHRGSTGTLTITYATLEQLDDLCNRLTRGI

Variants of: B1
Assay: one-hybrid fitness for binding parS DNA (scaled: cognate 1, non-cognate 0); higher = stronger binding
Conditions: with parS DNA site
Outline: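 In E. coli USO, a HIS3 reporter with its site placed 19 bp from the promoter was used to select Caulobacter ParB variants randomised at four specificity codons. Growth lasted 48 hours at 37°C on histidine-free M9 containing 0.1 mM IPTG and 5 mM 3-AT. Fitness was taken as the log change in variant-to-wild-type read ratio from Illumina sequencing of pre- and post-selection plasmids, rescaled between the non-cognate and cognate sites.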

Variant	one-hybrid fitness for binding parS DNA
LGYS	≤ 0.2
ESDF	≤ 0.2
KSRS	≤ 0.2
REIR	≤ 0.2
QPPE	≤ 0.2
NTDT	≤ 0.2
PKQF	≤ 0.2
RRHT	0.593
KLTR	≤ 0.2
PHMK	≤ 0.2
QNSP	≤ 0.2
QDCW	≤ 0.2
YCKA	≤ 0.2
GKIR	≤ 0.2
LKKN	≤ 0.2
WDHG	≤ 0.2
SPKG	≤ 0.2
LAQG	≤ 0.2
NRGC	≤ 0.2
YEVG	≤ 0.2
GVTP	≤ 0.2
VKHP	≤ 0.2
IRLV	≤ 0.2
THDM	≤ 0.2
LYHL	≤ 0.2
EPKM	≤ 0.2

Variant	one-hybrid fitness for binding parS DNA
KNSA	≤ 0.2
DYDI	≤ 0.2
KNHS	≤ 0.2
LVLL	≤ 0.2
TFVG	≤ 0.2
TDFR	≤ 0.2
PNRD	≤ 0.2
TPGY	≤ 0.2
ISAR	≤ 0.2
MLHR	≤ 0.2
EVHL	≤ 0.2
YIFT	≤ 0.2
QYHC	≤ 0.2
RPKY	≤ 0.2
DVKA	≤ 0.2
RTQD	0.202
HAHR	≤ 0.2
KHYN	≤ 0.2
TSYD	≤ 0.2
DHGF	≤ 0.2
ALQR	≤ 0.2
HSFF	≤ 0.2
RSVT	0.707
RVGW	0.209
EALN	≤ 0.2
TAPF	≤ 0.2

Variant	one-hybrid fitness for binding parS DNA
YSRR	≤ 0.2
QQPR	≤ 0.2
IPPN	≤ 0.2
QRAM	≤ 0.2
ANQN	≤ 0.2
QYRW	≤ 0.2
RDIE	≤ 0.2
WVLA	≤ 0.2
NLNI	≤ 0.2
AKIK	≤ 0.2
EDTL	≤ 0.2
FSSS	≤ 0.2
KALN	≤ 0.2
LTFI	≤ 0.2
VAQR	≤ 0.2
ELKF	≤ 0.2
LFTG	≤ 0.2
PCQV	≤ 0.2
HWMG	≤ 0.2
NIEV	≤ 0.2
KDTT	≤ 0.2
HRNG	0.239
PVKR	≤ 0.2
HRVM	≤ 0.2
PYKI	≤ 0.2
GYLI	≤ 0.2

Variant	one-hybrid fitness for binding parS DNA
SCYW	≤ 0.2
LSSE	≤ 0.2
LYQL	≤ 0.2
HHIT	≤ 0.2
NSNL	≤ 0.2
EGCI	≤ 0.2
ALAW	≤ 0.2
RECV	≤ 0.2
NDTL	≤ 0.2
HLKP	≤ 0.2
SSHM	≤ 0.2
AHPR	≤ 0.2
RHTW	≤ 0.2
LMNC	≤ 0.2
TSRI	≤ 0.2
HPWM	≤ 0.2
SSQN	≤ 0.2
LDFS	≤ 0.2
PTGR	≤ 0.2
EQYS	≤ 0.2
TSLS	≤ 0.2
SKHG	≤ 0.2
KLTD	≤ 0.2
ATFC	≤ 0.2
LGSR	≤ 0.2
STVY	≤ 0.2

Variant	one-hybrid fitness for binding parS DNA
CRAV	≤ 0.2
QVFL	≤ 0.2
VMLE	≤ 0.2
YIRT	≤ 0.2
SPGF	≤ 0.2
TKLH	≤ 0.2
QHMV	≤ 0.2
PASP	≤ 0.2
NRTH	≤ 0.2
QADG	≤ 0.2
MFAL	≤ 0.2
HILG	≤ 0.2
LLGT	≤ 0.2
CFFL	≤ 0.2
NSVG	≤ 0.2
AYHI	≤ 0.2
RVYQ	≤ 0.2
IHLS	≤ 0.2
KHMS	≤ 0.2
IQPR	≤ 0.2
FCLW	≤ 0.2
EGLG	≤ 0.2
QRMH	≤ 0.2
TLEE	≤ 0.2
GLCL	≤ 0.2
DWNC	≤ 0.2

Variant	one-hybrid fitness for binding parS DNA
MPVQ	≤ 0.2
NNPK	≤ 0.2
SRNS	≤ 0.2
RSPV	≤ 0.2
YRQE	≤ 0.2
REWR	≤ 0.2
DKDT	≤ 0.2
WRDG	≤ 0.2
RPER	≤ 0.2
HKIL	≤ 0.2
MHSD	≤ 0.2
GTTN	≤ 0.2
AYDV	≤ 0.2
ASMS	≤ 0.2
MREG	≤ 0.2
YAAY	≤ 0.2
VYIS	≤ 0.2
DDKT	≤ 0.2
NAAC	≤ 0.2
DPNR	≤ 0.2
YLIW	≤ 0.2
HLPK	≤ 0.2
KLRR	≤ 0.2
